Publication PMC4336329 (PLoS ONE, 2015)
Out of some 310,000 compounds screened, about 2,200 (0.71%) showed an effect of 50% or more. The effect is printed as a negative number. The list shows a part of the results.

Target: human ether-à-go-go-related gene (hERG) potassium channel (human, UniProt Q12809)
Test: primary screen, population patch clamp on CHO cells stably expressing hERG

human ether-à-go-go-related gene (hERG) potassium channel, sequence (Q12809 whole entry, looked up): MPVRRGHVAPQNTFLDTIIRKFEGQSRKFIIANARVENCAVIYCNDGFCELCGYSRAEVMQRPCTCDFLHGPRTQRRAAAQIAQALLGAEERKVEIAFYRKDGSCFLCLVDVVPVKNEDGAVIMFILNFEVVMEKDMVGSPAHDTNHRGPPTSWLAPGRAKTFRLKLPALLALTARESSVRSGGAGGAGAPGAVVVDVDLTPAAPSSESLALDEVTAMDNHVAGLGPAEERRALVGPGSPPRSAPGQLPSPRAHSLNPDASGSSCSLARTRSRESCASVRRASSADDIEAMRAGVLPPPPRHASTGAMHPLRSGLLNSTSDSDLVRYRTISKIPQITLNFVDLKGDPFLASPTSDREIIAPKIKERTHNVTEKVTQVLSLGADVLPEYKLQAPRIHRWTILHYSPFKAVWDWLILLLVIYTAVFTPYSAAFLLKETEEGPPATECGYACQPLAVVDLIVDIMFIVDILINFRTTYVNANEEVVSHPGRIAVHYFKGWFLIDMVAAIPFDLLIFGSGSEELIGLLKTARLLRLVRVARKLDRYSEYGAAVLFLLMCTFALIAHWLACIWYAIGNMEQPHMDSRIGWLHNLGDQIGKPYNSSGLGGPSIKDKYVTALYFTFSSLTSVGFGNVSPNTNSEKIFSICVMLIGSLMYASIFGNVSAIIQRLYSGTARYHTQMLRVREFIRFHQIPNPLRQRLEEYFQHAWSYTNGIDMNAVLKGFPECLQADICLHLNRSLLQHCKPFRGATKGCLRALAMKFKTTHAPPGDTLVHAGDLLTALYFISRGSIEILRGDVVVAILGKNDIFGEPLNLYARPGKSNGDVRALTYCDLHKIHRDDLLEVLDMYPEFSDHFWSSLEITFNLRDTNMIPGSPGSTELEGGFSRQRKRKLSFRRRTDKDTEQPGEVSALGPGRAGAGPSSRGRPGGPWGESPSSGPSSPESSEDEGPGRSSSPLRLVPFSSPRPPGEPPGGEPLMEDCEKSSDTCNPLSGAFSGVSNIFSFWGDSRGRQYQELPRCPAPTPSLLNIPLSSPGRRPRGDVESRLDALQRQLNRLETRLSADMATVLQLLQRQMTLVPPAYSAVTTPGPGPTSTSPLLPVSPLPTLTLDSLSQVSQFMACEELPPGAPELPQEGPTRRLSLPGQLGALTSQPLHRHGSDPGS

| SMILES | hERG current change (%, negative = inhibition) at 1uM [%] |
| --- | --- |
| COc1ccc(OCC(=O)N/N=C(\C)CC(=O)Nc2ccc(OC)cc2[N+](=O)[O-])cc1 | -61.8 |
| CCN(CC)S(=O)(=O)c1ccc(C(=O)NC2=C(C(=O)OC)SCC2)cc1 | -0.706 |
| Cc1cc(NC(=O)CSc2n[nH]c(-c3ccc(Cl)cc3Cl)n2)no1 | 2.79 |
| O=C(c1cccs1)N1CCCC(c2ccccc2)C1 (stereo not drawn) | -0.554 |
| CC(C)CN(C(=O)COC(=O)CCC(=O)c1ccc(F)cc1)c1c(N)n(Cc2ccccc2)c(=O)[nH]c1=O | 4.12 |
| O=C(C/C=N/OCc1ccc(F)cc1Cl)c1cnc(-c2ccccc2)s1 | 8.27 |
| O=C(CNC(=O)c1ccco1)N=Nc1c(O)n(CCc2ccccc2)c2ccccc12 | -25.6 |
| COC(=O)c1ccc(C(=O)OC)c(NC(=O)Oc2ccccc2)c1 | 14.4 |
| O=C(C[n+]1ccc(C(=O)NCc2ccccc2)cc1)c1ccc(Cl)cc1.[Br-] | -32.4 |
| Cc1ccc(Nc2c(-c3ccc(N4CCOCC4)cc3)nc3cnccn23)cc1 | 9.37 |
| C[C@@H](C(=O)Nc1ccc2c(c1)OCCO2)n1nnc2ccccc2c1=O | 21.9 |
| C=CCn1c(SCC(=O)Nc2ccccc2OC)nc(O)c(CC)c1=O | -4.87 |
| Cc1ccc(C)c(N2CCN(C(=O)CC3Sc4ccccc4NC3=O)CC2)c1 (stereo not drawn) | 13 |
| CCCCCn1c(N)c(-c2nc3ccccc3s2)c2c([N+](=O)[O-])nn(CC)c(=O)c21 | 8.22 |
| CC(C)(NC(=O)c1cc(Cl)c2ccccc2c1O)C(=O)O | 17.9 |
| CCn1c(-c2c[nH]c3ccccc23)n[nH]c1=S | 11.5 |
| O=C(O)C(=O)O.O=C(c1cccc(Cl)c1)N1CCN(CCCc2ccccc2)CC1 | -14.9 |
| O=C(O)c1ccc(N2CCCC2=O)cc1 | 12.5 |
| Cc1nnc2ccc(N3CCN(c4cccc(C(F)(F)F)c4)CC3)nn12 | -28 |
| C[C@]12C=CC(=O)C=C1CC[C@@H]1[C@@H]2[C@@H](O)C[C@@]2(C)[C@H]1CC[C@]2(O)C(=O)COC(=O)CCC(=O)[O-].[Na+] | 22.5 |
| Nc1ccc(Br)cc1C(NCC(=O)O)c1ccccc1 (stereo not drawn) | 18.5 |
| CN(CC(=O)NCCC1=CCCCC1)S(=O)(=O)c1ccc2c(c1)CCC(=O)N2 | 6.24 |

| SMILES | hERG current change (%, negative = inhibition) at 1uM [%] |
| --- | --- |
| Cc1nc2sc(C(c3ccccc3)N3CCN(c4ccccc4F)CC3)c(O)n2n1 (stereo not drawn) | -0.47 |
| Cc1cnc(CNC(=O)CC2C(=O)NCCN2Cc2ccccc2F)cn1 (stereo not drawn) | 11.7 |
| CC(=O)Nc1ccc(NC(=O)CSc2ccc([N+](=O)[O-])cn2)cc1 | 13.1 |
| Cc1ccc2nsnc2c1S(=O)(=O)N1CCCC1 | -3.03 |
| COc1ccc(C(=O)N/C(=C/c2cccs2)C(=O)NCCCn2ccnc2)cc1OC | 0.585 |
| CCOCCn1[nH]c2ccccc2c1=O | 10.5 |
| CCC(COC(=O)Nc1cccc(C)c1C)NC(=O)OCC(C)C (stereo not drawn) | -7.46 |
| Cc1cc(=O)oc2cc3c(cc12)OCCO3 | 16.7 |
| Br.COC(=O)CN1C(C)=Nc2ccc(Br)cc2C1c1ccccc1 (stereo not drawn) | -18.3 |
| CC(=O)NNc1[nH]c2c(c(=O)c1[N+](=O)[O-])c(=O)n(C)c(=O)n2C | 9.85 |
| COc1ccc(CCNC(=O)c2ccc([N+](=O)[O-])cc2Cl)cc1OC | 5.72 |
| CCCS(=O)(=O)N1CCN(C(=O)c2cccs2)CC1 | -0.379 |
| C=CCCC(=O)NC1CC(C)(C)Cc2c1cnn2-c1cccc(F)c1 (stereo not drawn) | -17.4 |
| CCN1C(=O)[C@H]2[C@@H](c3ccc(-c4ccc(OC)cc4)cc3)N3CCC[C@@]3(C(=O)OC)[C@H]2C1=O.O=C(O)C(F)(F)F | 11.6 |
| CCN1CCCC1CN=Cc1c(O)n(-c2ccccc2)c(=O)c2ccccc12 (stereo not drawn) | -9.62 |
| COc1ccc(C(=O)Nc2nnc(S(=O)(=O)N3CCCCCC3)s2)cc1OC | 9.03 |
| COc1cccc(-c2cc(C(F)(F)F)n3ncc(S(=O)(=O)c4ccccc4)c3n2)c1 | -0.258 |
| N/C(Cc1ccc(Cl)cc1)=N\OC(=O)C1CCCCC1 | 6.48 |
| Cc1ccc(NC(=O)CN2C(=O)C(=O)N(C3CCCC3)C2=O)c(Cl)c1 | 11.1 |
| CN(C(=O)CNC(=O)OCc1ccccc1)c1ccc(Br)cc1C(=O)c1ccccc1Cl | 11.7 |
| C=CCNc1nc(C(=O)OCC(=O)c2ccc(Cl)cc2)cs1 | 1.02 |
| O=C(Nc1cccc(C(=O)O)c1)/C(=C\c1ccco1)NC(=O)c1ccccc1 | 11.4 |

| SMILES | hERG current change (%, negative = inhibition) at 1uM [%] |
| --- | --- |
| CC1CCN(C(=S)Nc2ccc(SC(F)F)cc2)CC1 | -31.7 |
| COc1ccc(C)cc1NC(=O)COCC(=O)O | 2.28 |
| Cn1c(=O)c2c(nc(CN3CCN(C(=O)c4ccco4)CC3)n2Cc2ccc(F)cc2)n(C)c1=O | -21.5 |
| Cn1c(=O)cc(C(=O)N/N=C/c2ccc(F)cc2)[nH]c1=O | 10.7 |
| Cc1ccc(S(=O)(=O)N2CCN(Cc3nc4ccccc4[nH]3)CC2)cc1C | 2.08 |
| O=C(COC(=O)C12CC3CC(CC(C3)C1)C2)Nc1ncc(Cl)cc1Cl | 19.7 |
| Brc1ccc2ncnc(NCc3ccccc3)c2c1 | 6.35 |
| Cc1cc(C)cc(N(CC(=O)N2CCn3c2nc2ccccc23)S(=O)(=O)c2c(C)noc2C)c1 | 9.56 |
| Cc1ccc(C(CC(N)=O)c2ccco2)cc1 (stereo not drawn) | -1.77 |
| CC(O)c1nc(C(C)O)n(CC(=O)c2ccccc2)n1 (stereo not drawn) | 19.8 |
| O=C(COC(=O)CN1C(=O)c2ccccc2C1=O)NC1CCCC1 | 21.7 |
| CCCCN(CCCNC(=O)c1ccc2nc(N3CCOCC3)sc2c1)Cc1ccccc1 | -29 |
| C=CCSc1nc2ccccc2n2cnnc12 | 10.1 |
| NC(=O)CN1C(=O)NC2(CCCc3sccc32)C1=O (stereo not drawn) | 17 |
| COc1ccc(S(=O)(=O)N2CCCC(N(C)CCc3ccccc3)C2)cc1OC (stereo not drawn) | -26.5 |
| Cc1ccc(N2CC(C(=O)NCCS(=O)(=O)N3CCN(c4ccccc4)CC3)CC2=O)cc1 (stereo not drawn) | 16.3 |
| CCOc1ccc(C(=O)NCC(=O)OCC(=O)N2C(C)CCCC2C)cc1 (stereo not drawn) | 10.4 |
| Cc1[nH]n(-c2ccccc2)c(=O)c1C=Nc1ccc2[nH]c(=O)[nH]c2c1 | 12.3 |
| Cc1csc2c(=O)[nH]cnc12 | 7.61 |
| Cc1ccc(C(=O)Nc2ccccc2[N+](=O)[O-])cc1S(=O)(=O)N1CCOCC1 | 9.54 |
| CCOc1ccccc1-c1nc(CN2CCN(C(=O)c3ccco3)CC2)c(C)o1 | 9.83 |
| Cn1c(-c2ccc(F)cc2)cnc1NCc1ccc(C#N)cc1 | -22.9 |

| SMILES | hERG current change (%, negative = inhibition) at 1uM [%] |
| --- | --- |
| N#Cc1c(NC(=O)CSc2nnnn2C2CCCCC2)sc2c1CCCC2 | -5.78 |
| Cc1ccccc1OCC(=O)NCC(=O)N/N=C/c1cccc([N+](=O)[O-])c1 | 9.82 |
| CCOC(=O)N1CCC(NC(=O)c2cc3c(-c4ccc(OC)c(OC)c4)nn(C)c3s2)CC1 | 12.3 |
| Cc1cc(NC(=O)CCCN2C(=O)/C(=C/c3ccccc3Cl)SC2=S)no1 | -1.02 |
| COc1ccc(NC(=O)c2[nH]ncc2[N+](=O)[O-])cc1 | 12.2 |
| O=C(CNS(=O)(=O)c1ccc(Br)s1)NC1CCCc2ccccc21 (stereo not drawn) | 4.83 |
| O=C(Nc1ccon1)c1ccc(S(=O)(=O)N2CCCCCC2)cc1 | 12.1 |
| Clc1ccc(-n2nnnc2SCc2c(-c3ccccc3)nc3sccn23)cc1 | 7.74 |
| Cc1ccc(-n2nc3c(=O)n(CC(=O)NCc4cccs4)nc(C)c3c2C)cc1 | 13 |
| Oc1ccc2ccc3cccc[n+]3c2c1.[I-] | 19.3 |
| COc1cccc(CN(C)CC(=O)Nc2ccccc2C(=O)Nc2ccccc2)c1 | 9.94 |
| COc1ccc(CNC(=O)CCN2C(=O)c3ccncc3C2=O)cc1OC | 12.5 |
| O=C(NCc1cccnc1)C(=O)Nc1cc2c3c(c1)CC(=O)N3CCC2 | 9.67 |
| CC(=O)c1c(C)n([O-])c2cc(F)c(F)cc2[n+]1=O | 14.1 |
| CS(=O)(=O)Nc1cc2c3c(c1)CCC(=O)N3CCC2 | 23.8 |
| Cc1c(/C=C(\CC(=O)O)c2nc3ccccc3s2)cc(C#N)n1C | 13.8 |
| CCn1c(SCCN2CCOCC2)nc2c1c(=O)n(C)c(=O)n2C | 18.2 |
| CCOc1ccccc1/C=C(\C#N)C1=CCCC1 | 16 |
| COc1cc(SC)ccc1C(=O)Nc1cccc(C)n1 | 2.34 |
| CCOc1ccc(NC(=O)NNC(=O)c2ccc(Cl)cc2Cl)cc1 | 11 |
| Cc1ccc(C)c(OCC(O)CN2CCN(CCN3C(=O)c4cccc5cccc(c45)C3=O)CC2)c1.Cl (stereo not drawn) | 13.5 |
